Reference: PubChem BioAssay AID1745853 (National Center for Advancing Translational Sciences (NCATS), 2022)
Values joined by “and” are separate entries in the source; they are usually repeats but may differ in a detail not shown here. Equal values may be shown once. This is one part of the list. The main result of the screen is listed elsewhere. These columns were measured beside it and carry no call.

Assays:
Assay in all cases: Primary Screen for Target Class Profiling of Small Molecule Inhibitors of Methyltransferases
[1] = biological target: Glycine N-methyltransferase (Homo sapiens) (UniProt Q14749); conditions: purified enzyme, MTase-Glo SAH luminescence; measured here: GNMT inhibition; at 40 µM; stronger effect = lower value
How it was run: (§1)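 Each enzyme was reacted with SAM and its substrate, with compounds tested once at 40 uM; SAH formed was read by MTase-Glo luminescence.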

[2] = biological target: Guanidinoacetate N-methyltransferase (Homo sapiens) (UniProt Q14353); conditions: purified enzyme, MTase-Glo SAH luminescence; measured here: GAMT inhibition; at 40 µM; stronger effect = lower value
How it was run: as §1

[3] = biological target: Histamine N-methyltransferase (Homo sapiens) (UniProt P50135); conditions: purified enzyme, MTase-Glo SAH luminescence; measured here: HNMT inhibition; at 40 µM; stronger effect = lower value
How it was run: as §1

[4] = biological target: Nicotinamide N-methyltransferase (Homo sapiens) (UniProt P40261); conditions: purified enzyme, MTase-Glo SAH luminescence; measured here: NNMT inhibition; at 40 µM; stronger effect = lower value
How it was run: as §1

[5] = biological target: Phenylethanolamine N-methyltransferase (Homo sapiens) (UniProt P11086); conditions: purified enzyme, MTase-Glo SAH luminescence; measured here: PNMT inhibition; at 40 µM; stronger effect = lower value
How it was run: as §1
On the % scale 0 is the no-effect control and ±100 the full control effect.

Structure (SMILES)	activity change, negative = inhibition [1]	activity change, negative = inhibition [2]	activity change, negative = inhibition [3]	activity change, negative = inhibition [4]	activity change, negative = inhibition [5]
CC1(C(=O)NCc2ccccc2)Cn2c(cc3ccccc32)C(=O)N1Cc1ccc(F)cc1 (stereo not drawn)	-4.94%	2.8%	-4.73%	-1.53%	-3.25%
CN(C)C(=O)c1nc2sccn2c1-c1ccc(C(F)(F)F)cc1	-3.24%	-8.57%	-1.72%	-11.7%	3.25%
Cc1cc2c(cc1S(=O)(=O)N1CCN(c3ccccc3)CC1)n(C)c(=O)n2C	-5.87%	0.484%	-15.1%	-13.3%	-9.76%
CC1(C(=O)NCc2ccccc2)Cc2ccccc2C(=O)N1Cc1ccc(C(F)(F)F)cc1 (stereo not drawn)	1.04%	3.54%	-3.9%	-4.77%	-4.19%
Cc1cccc(N2C(=O)c3cc4sccc4n3CC2(C)C(=O)NC2CCCCCC2)c1C (stereo not drawn)	3.25%	1.34%	7.45%	0.898%	0.381%
COc1ccc(Nc2nc3c(S(=O)(=O)c4ccccc4)nnn3c3ccccc23)c(OC)c1	1.01%	0%	10%	7.51%	0.519%
O=C1NCCCc2c1oc1ccc(O)cc21		-11.6%		-17.9%	-2.44%
Cc1occc1C(=O)N1CCC(CCC(=O)N2CCN(c3ccccc3)CC2)CC1	-6%	-5.72%	-5.93%	-8.49%	-7.78%
CCC(C)NC(=O)c1ccc2c(=O)n(CCC(C)C)c3nn(Cc4ccc(F)cc4)c(=O)n3c2c1 (stereo not drawn)	2.52%	0%	8.66%	-0.664%	5.55%
COc1cc(N2CCC(N3CCN(C)CC3)CC2)ccc1Nc1ncc(Cl)c(Nc2ccccc2P(C)(C)=O)n1	-9.53%	-5.07%	-43.8%	-18.6%	0.47%
CN(C)c1ccc(-c2nnc([C@H]3CCN(Cc4ccccn4)C3)o2)cc1	-15.7%	-9.03%	-21.3%	-14.7%	-2.43%
CCOC(=O)c1cc2n(n1)CC(C)(C(=O)NC1CCCC1)N(c1ccc(C)cc1Cl)C2=O (stereo not drawn)	6.86%	2.11%	9.26%	7.46%	5.45%
CSc1ccc(CCN2C(=O)c3cc4ccccc4n3CC2(C)C(=O)NC2CCCC2)cc1 (stereo not drawn)	-2.64%	3.07%	-1.08%	-4.11%	-4.19%
Cc1cc2[nH]c(=O)[nH]c2cc1S(=O)(=O)Nc1ccccc1	9.73%	1.05%	11.9%	1.42%	2.89%
CC1=C(C(=O)OCc2ccccc2)C(c2ccc(-c3ccccc3)cc2)NC(=O)N1CCCCCC(=O)O (stereo not drawn)	-57.5%	6.3%	6.88%	-45.4%	5.43%
COc1cccc(CN2C(=O)c3cc4sccc4n3CC2(C)C(=O)NC2CCCCCC2)c1OC (stereo not drawn)	2.4%	-5.81%	7.73%	0.533%	3.75%
CCOCCCNC(=O)CCc1nnc2n(CCc3ccccc3)c(=O)c3ccccc3n12	-6.62%	1.42%	9.1%	12.6%	2.3%
Cc1ccc(C)c(C(=O)Cn2nc3n(Cc4ccccc4)c(=O)c4ccccc4n3c2=O)c1	5.69%	0%	12.6%	-9.4%	6.42%
O=C(NCCc1ccc(Cl)cc1)c1cc(-c2cccs2)c2cccn2n1	-20.5%	-2.48%	-12.7%	-7.63%	-9.79%
Cc1cc(N)c2ccccc2[n+]1CCCCCCCCCC[n+]1c(C)cc(N)c2ccccc21	-14.9% and -19.9%	8.45% and 10.8%	-93.9% and -95.4%	-48.9% and -45.3%	-10.3% and -6.11%

Structure (SMILES)	activity change, negative = inhibition [1]	activity change, negative = inhibition [2]	activity change, negative = inhibition [3]	activity change, negative = inhibition [4]	activity change, negative = inhibition [5]
COc1ccc(/C=C/C(=O)O[C@H]2[C@H](O[C@H]3[C@@H]4C=CO[C@@H](O[C@@H]5O[C@H](CO)[C@@H](O)[C@H](O)[C@H]5O)[C@@H]4[C@@]4(CO)O[C@@H]34)O[C@@H](C)[C@H](O)[C@H]2OC(C)=O)cc1	-1.29%	-11.4%	-3.61%	-21.7%	-1.48%
O=C(CCc1nc(-c2cccnn2)no1)NC1CCCCCCC1	-3.23%	-8.71%	-1.06%	-12.9%	-7.49%
CC1CCCC(NC(=O)C2(C)Cn3c(cc4sccc43)C(=O)N2CCc2ccccc2)C1C (stereo not drawn)	-5.55%	3.88%	-3.67%	-0.079%	-4%
CN(C)C(=O)Oc1ccc[n+](C)c1	2.27%	20.5%	6.96%	4.45%	7.88%
Nc1c2c(nc3ccccc13)CCCC2O (stereo not drawn)	6.53%	10.6%	-39.6%	-5.47%	5.91%
CC(C)(O)C#Cc1ccc(-c2nccn2-c2cccc(-n3cncn3)c2)cc1	-3.76%	-4.87%	-6.34%	-7.7%	-6.67%
Cn1c(=O)c2ccc(C(=O)NC3CCCC3)cc2n2c(=O)n(CC(=O)Nc3cccc(F)c3)nc12	-0.771%	3.86%	-1.03%	-16%	-0.992%
O=C(Cn1nc2n(CCc3ccccc3)c(=O)c3ccccc3n2c1=O)Nc1cc(F)ccc1F	4.19%	2.07%	7.43%	5.35%	4.32%
CCC(C(=O)N1CCOCC1)n1ccc2cc(S(=O)(=O)N3CCCCC3)ccc21 (stereo not drawn)	-2.07%	4.65%	-3.21%	-6.14%	-0.856%
COCCCNc1nc2c(-c3ccc(C)cc3)nnn2c2ccccc12	-4.55%	4.93%	-2.53%	3.62%	-13.9%
Cn1c([C@H]2CCN(Cc3ccc4c(c3)OCO4)C2)nc2ccccc21	-10.6%	-7.05%	-16.7%	-19.6%	-17.2%
CC1=C(C(=O)O)N2C(=O)[C@@H](NC(=O)C(N)c3ccccc3)[C@H]2SC1 (stereo partly drawn)	10.5%	13.9%	11.2%	-8.17%	-0.015%
CC(=O)NCC(=O)N1CCC(c2cc(-c3ccc(F)cc3)n[nH]2)CC1	-6.49%	-5.46%	-1.59%	-9.38%	-3.03%
COc1ccc(NS(=O)(=O)c2ccc3[nH]c4c(c3c2)CCCC4)cc1	-9.92%	-0.226%	-3.99%	-14%	-3.17%
O=C(NC1CCCCC1)N1CCCCCC1c1nc(-c2ccncc2)no1 (stereo not drawn)	-5.32%	-10.7%	-4%	-8.44%	-0.029%
OC[C@H]1O[C@@H](OCc2ccccc2)[C@H](O)[C@@H](O)[C@@H]1O	0%	3.88%	3.61%	-6.69%	6.21%
Cc1ccc(CN2C(=O)c3cc4oc(C)cc4n3CC2(C)C(=O)NC2CCCCC2)cc1 (stereo not drawn)	0.365%	0.908%	3.27%	-0.097%	-1.6%
CCOC(=O)c1cc2n(n1)CC(C)(C(=O)NC1CCCCC1)N(c1cc(OC)cc(OC)c1)C2=O (stereo not drawn)	-1.95%	-1.43%	-8.3%	0.56%	0.573%
COc1cccc(CNC(=O)c2ncn3c2C(=O)N(C2CC2)C(C)(C(=O)NCc2ccccc2Cl)C3)c1 (stereo not drawn)	-8.84%	4.51%	-3.47%	-5.05%	-0.282%
